The campaign covered roughly 350,000 compounds. About 31,000 (8.9%) were called active. Inconclusive means that the source gave no clear call. Such entries were picked first, then a sample of the others. Calls come from the whole dose curve; as a rule, active = well fitted inhibition curve with a large enough effect; inconclusive = small, poorly fitted or top-dose-only effect; inactive = no such curve, though single readings can be large or run the other way. A potency beside an inconclusive call is a rough fit, not a confirmed value. The source holds several records for some structures; these can differ, active in one and inactive in another. *1 amine or outer side, *2 acyl side, *3 side chain or, on linkers, in order; H or OH if unused. Where a SMILES comes first, the peptide text is derived from it. [ ]: non-standard residue; d: D form. ξ: configuration not given here. ξR = N=C(N)NCCCC(N)C(=O)O; ξF = NC(Cc1ccccc1)C(=O)O; CO = O=C([*:1])[*:2]
target: Histone-lysine N-methyltransferase EHMT2 (Homo sapiens) (UniProt Q96KQ7); assay: qHTS Assay for Inhibitors of Histone Lysine Methyltransferase G9a; settings: G9a H3K9 monomethylation, AlphaScreen, 2 h; activity, negative = inhibition: at 59 µM (top of the series) unless noted; note: nearly all actives have a fitted effect of over 75% in size
UniProt Q96KQ7, sequence (Q96KQ7 whole entry, looked up): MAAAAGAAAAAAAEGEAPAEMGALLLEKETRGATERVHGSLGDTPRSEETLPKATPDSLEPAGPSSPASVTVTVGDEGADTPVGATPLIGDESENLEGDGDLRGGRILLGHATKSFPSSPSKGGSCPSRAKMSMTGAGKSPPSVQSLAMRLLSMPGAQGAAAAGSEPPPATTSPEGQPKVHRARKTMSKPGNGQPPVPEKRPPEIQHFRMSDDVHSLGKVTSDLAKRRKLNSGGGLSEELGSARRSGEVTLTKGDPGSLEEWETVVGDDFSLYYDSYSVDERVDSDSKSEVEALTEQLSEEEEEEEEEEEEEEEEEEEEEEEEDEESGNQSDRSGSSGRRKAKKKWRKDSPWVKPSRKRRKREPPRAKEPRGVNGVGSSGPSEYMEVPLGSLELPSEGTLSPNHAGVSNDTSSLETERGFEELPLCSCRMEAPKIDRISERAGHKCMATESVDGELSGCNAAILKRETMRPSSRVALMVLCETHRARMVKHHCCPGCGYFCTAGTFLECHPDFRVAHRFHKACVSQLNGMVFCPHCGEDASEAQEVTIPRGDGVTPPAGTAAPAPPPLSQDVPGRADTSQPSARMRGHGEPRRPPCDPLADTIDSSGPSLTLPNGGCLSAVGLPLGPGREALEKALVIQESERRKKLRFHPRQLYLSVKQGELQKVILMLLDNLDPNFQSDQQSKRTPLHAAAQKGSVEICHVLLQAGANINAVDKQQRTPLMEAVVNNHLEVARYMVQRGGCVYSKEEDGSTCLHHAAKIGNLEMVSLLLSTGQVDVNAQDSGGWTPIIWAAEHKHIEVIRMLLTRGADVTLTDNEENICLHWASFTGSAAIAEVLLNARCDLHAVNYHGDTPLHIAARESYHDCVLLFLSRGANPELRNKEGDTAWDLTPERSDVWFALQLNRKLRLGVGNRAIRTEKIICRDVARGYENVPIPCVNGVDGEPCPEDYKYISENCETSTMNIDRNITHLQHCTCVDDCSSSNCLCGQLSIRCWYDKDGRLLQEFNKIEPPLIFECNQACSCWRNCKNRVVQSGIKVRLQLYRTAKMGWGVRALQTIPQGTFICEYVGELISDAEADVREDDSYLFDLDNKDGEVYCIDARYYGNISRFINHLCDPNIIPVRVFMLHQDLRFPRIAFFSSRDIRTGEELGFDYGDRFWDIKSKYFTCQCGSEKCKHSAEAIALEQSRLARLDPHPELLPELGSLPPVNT
Method in brief: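 Signal arises when biotinylated H3K9 peptide, once monomethylated, bridges streptavidin donor and antibody-captured acceptor beads. Enzyme at 20 nM was preincubated 15 min with test compounds; peptide 500 nM and SAM 20 uM then reacted for 2 h.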
% is set by controls: 0 for no effect and ±100 for the full control effect; potency is the fitted concentration of half-maximal effect; tags give direction and shape of the fitted curve.

Row | SMILES | activity, negative = inhibition | Potency
1 | C#CCN1C(=O)C(O)(CC(=O)c2ccc(OC)c(OC)c2)c2ccccc21 (centres undefined) | inactive: -13.4% | –
2 | CC(C)c1ccc(OCC(O)CN2CCN(c3ccccn3)CC2)cc1 (centres undefined) | – | inconclusive: 79.4 µM [inhibitor, single point]
3 | CCc1ccccc1Nc1ncnc2c1cnn2-c1ccc(Cl)cc1 | inactive: 5.16% | –
4 | CSCCC(NS(=O)(=O)c1cccs1)C(=O)Nc1ccc(C)c(Cl)c1 (centres undefined) | – | inconclusive: 28.2 µM [inhibitor, partial curve, poor fit]
5 | Cc1nc(C)c(-c2csc(NCCc3ccccc3)n2)s1 | – | inconclusive: 39.8 µM [inhibitor, single point]
6 | CN(C)CCCN(C(=O)c1ccco1)c1nc2ccc(Cl)cc2s1 | – | inconclusive: 44.7 µM [inhibitor, partial curve, poor fit]
7 | CCOC(=O)c1cnc2ccc(C(=O)OC)cc2c1Nc1ccc(N2CCOCC2)cc1 | – | active: 12.6 µM
8 | CCOC(=O)C1CCN(C(=O)CN(c2ccc(OC)cc2)S(=O)(=O)c2c(C)nn(C)c2C)CC1 | – | inconclusive: 79.4 µM [inhibitor, single point]
9 | CCC(=O)N=C1SC2CS(=O)(=O)CC2N1c1cccc(OC)c1 (centres undefined) | – | inconclusive: 1.78 µM [inhibitor, partial curve, poor fit]
10 | Cc1ccc(C(C)C)c(OCCN)c1 | – | inconclusive: 50.1 µM [inhibitor, partial curve, poor fit]
11 | CCN1CCOC(=O)C1CC(=O)Nc1ccc(C(C)=O)cc1 (centres undefined) | – | active: 3.16 µM
12 | COc1ccc(OCc2cc(C(=O)N(Cc3nccn3C)C(C)C)no2)c2ccccc12 | – | active: 50.1 µM
13 | CCc1cc(-c2n[nH]c(=S)n2Cc2ccccc2)cs1 | – | inconclusive: 1.58 µM [inhibitor, full curve, poor fit]
14 | Clc1ccc(-c2nc(/C=N/N3CCOCC3)c3ccccn23)cc1 | – | active: 28.2 µM
15 | CCc1ccc(-n2c(Cn3nc(C(F)(F)F)cc3C)n[nH]c2=S)cc1 | – | inconclusive: 10 µM [inhibitor, partial curve, poor fit]
16 | CCC1NC(=S)NC(C)=C1C(=O)c1ccccc1 (centres undefined) | – | inconclusive: 39.8 µM [inhibitor, single point]
17 | NC(=O)C1CCN(C2CC(=O)N(c3ccc(F)c(Cl)c3)C2=O)CC1 (centres undefined) | – | inconclusive: 35.5 µM [inhibitor, single point]
18 | CC1(C)Cc2c(C#N)c(OCC(=O)c3ccccc3)nc(-c3ccoc3)c2CO1 | – | inconclusive: 89.1 µM [inhibitor, partial curve, poor fit]
19 | CCCCNC(=S)Nc1ccccc1F | inactive: 20.2% [at 102 µM] | –
20 | COc1cccc(Cn2c(C)c(CNCc3ccccc3Cl)c(C(=O)O)c2C)c1 | inactive: -4.07% | –
21 | CN(C)c1cc2c(cc1NC(=O)c1ccc(F)cc1)n(C)c(=O)n2C | – | inconclusive: 10 µM [inhibitor, partial curve, poor fit]
22 | O=C(O)Cc1ccc(OCc2ccc(Cl)nc2)cc1 | – | inconclusive: 25.1 µM [inhibitor, full curve]
23 | Cc1cccc(NC(=S)NNC(=O)c2csc3c2CCCC3)c1 | – | inconclusive: 79.4 µM [inhibitor, partial curve, poor fit]

Row | SMILES | activity, negative = inhibition | Potency
24 | O=C(CCNS(=O)(=O)c1cccc2nsnc12)N1CC(=O)N(CCc2ccccc2)C(=O)C1 | – | inconclusive: 89.1 µM [inhibitor, partial curve, poor fit]
25 | CC(=O)Nc1ccc(S(=O)(=O)NCc2cn3c(C)csc3n2)cc1 | – | inconclusive: 25.1 µM [inhibitor, single point]
26 | COCCN1C(=O)C(CC(=O)Nc2ccccc2)SC1=Nc1ccc(OC)cc1 (centres undefined) | inactive: -4% | –
27 | Cc1ccccc1-c1nc(CS(=O)(=O)CC(=O)NCc2ccccc2)c(C)o1 | – | inconclusive: 28.2 µM [inhibitor, partial curve, poor fit]
28 | Cc1ccccc1OCc1ccc(-c2nc(C#N)c(N3CCN(c4ccccc4)CC3)o2)o1 | – | inconclusive: 0.708 µM [inhibitor, full curve, poor fit]
29 | O=C(CN1C(=O)COc2ccccc21)NCCN1CCc2ccccc2C1 | – | inconclusive: 3.16 µM [inhibitor, partial curve, poor fit]
30 | COc1ccc(CC(O)COS(N)(=O)=O)cc1 (centres undefined) | inactive: 5.28% [at 102 µM] | –
31 | COc1cccc(C(=O)Nc2ccc(-n3nncc3C(C)(C)C)cc2)c1 | – | inconclusive: 89.1 µM [inhibitor, partial curve, poor fit]
32 | CC1(C)Oc2ccc(/C=C/C(=O)N3CCOCC3)c(O)c2C(N2CCOCC2)C1O (centres undefined) | inactive: 39.4% | –
33 | CCc1nnc(NC(=O)c2ccc(S(=O)(=O)N3CCOCC3)cc2)s1 | – | inconclusive: 44.7 µM [inhibitor, partial curve]
34 | CNC(=O)C1CCN(Cc2cc3ccccc3n2Cc2cccc(C)c2)CC1 | inactive: -0.737% | –
35 | O=C(c1cccc2cccc(O)c12)N1CCCCC1 | – | inconclusive: 89.1 µM [inhibitor, single point]
36 | O=c1c(-c2cccs2)nc2cnc(N3CCOCC3)nc2n1CCc1ccccc1 | inactive: 21.8% [at 0.501 µM] | –
37 | COC(=O)[C@H](CC(C)C)NC(=O)c1cc2c(cn1)[nH]c1ccccc12 | – | active: 7.94 µM
38 | COc1ccc(CCN=C(N)NS(=O)(=O)c2ccc(C)cc2)cc1 | – | inconclusive: 79.4 µM [inhibitor, single point]
39 | C/C(CCc1ccco1)=N\NC(=O)CNc1cccc2ccccc12 | – | inconclusive: 70.8 µM [inhibitor, partial curve]
40 | Cc1cc2c(cc(C(=O)OCC(=O)NCc3cccs3)n2C(C)C)o1 | – | inconclusive: 22.4 µM [inhibitor, single point]
41 | Cc1cccc(-c2nnn3c2nc(NCc2ccccc2)c2ccccc23)c1 | inactive: 5.52% | –
42 | O=C(c1nc2ccccn2c1CNCCCn1cccn1)N1CCCC1 | inactive: 5.91% [at 102 µM] | –
43 | O=C(Nc1ccc(O)cc1)/C(=C\C=C\c1ccccc1)NC(=O)c1ccccc1 | – | inconclusive: 44.7 µM [inhibitor, partial curve]
44 | CNC(=S)N(CCc1c(C)[nH]c2ccc(C)cc12)Cc1ccco1 | – | active: 44.7 µM
45 | COc1ccccc1CNc1nc2ccccc2n1CCN1CCCCC1 | – | inconclusive: 35.5 µM [inhibitor, partial curve, poor fit]
46 | CN(Cc1cnccn1)C(=O)CC1C(=O)NCCN1CC(c1ccccc1)c1ccccc1 (centres undefined) | – | inconclusive: 50.1 µM [inhibitor, partial curve]

Row | SMILES | activity, negative = inhibition | Potency
47 | COc1ccc(CNC(=O)COC(=O)CC(NC(N)=O)c2ccc(Cl)cc2)cc1OC (centres undefined) | inactive: 18.7% [at 2.33 µM] | –
48 | CN(C)c1ccc(NC(=O)CN2CCN(CC(=O)Nc3ccc(F)cc3)CC2)cc1 | – | active: 25.1 µM
49 | Cc1ccc(N(Cc2cc3ccccc3[nH]c2=O)C(=O)c2cccc(Cl)c2)cc1 | – | inconclusive: 35.5 µM [inhibitor, single point]
50 | COCCNC(=O)Cn1cc2c(n1)CCCCC2 | – | inconclusive: 79.4 µM [inhibitor, partial curve, poor fit]
51 | CC(NC(=O)c1ccc(CS(C)(=O)=O)cc1)c1cccc2ccccc12 (centres undefined) | inactive: 3.06% [at 102 µM] | –
52 | CCOc1ccc(NC(=O)CCn2cccc2)cc1 | – | inconclusive: 79.4 µM [inhibitor, single point]
53 | COc1ccc(S(=O)(=O)NC(Cc2cnc[nH]2)C(=O)O)cc1 (centres undefined) | – | inconclusive: 39.8 µM [inhibitor, single point]
54 | CCCc1nc2c(C)cc(-c3nc4ccccc4n3C)cc2n1Cc1ccc(-c2ccccc2C(=O)O)cc1 | inactive: -43.4% [at 2.33 µM] | active: 4.47 µM
55 | CC1=C(C(N)=O)C(c2cccc(C)c2)n2nc(-c3cccc(C)c3)nc2N1 (centres undefined) | – | inconclusive: 25.1 µM [inhibitor, partial curve, poor fit]
56 | O=S(=O)(c1ccc(-c2csc(Nc3ccc(Br)cc3)n2)cc1)N1CCCC1 | – | inconclusive: 5.01 µM [inhibitor, partial curve, poor fit]
57 | Cc1cc(C)nc(/N=C(\N)N2CCc3ccccc32)n1 | – | inconclusive: 70.8 µM [inhibitor, single point]
58 | CC(Oc1ccc2ccc(=O)oc2c1)C(=O)c1ccccc1 (centres undefined) | inactive: 22.6% | –
59 | CCCn1c(N)c(C(=O)CN2CCN(S(=O)(=O)c3cccs3)CC2)c(=O)[nH]c1=O | – | inconclusive: 89.1 µM [inhibitor, single point]
60 | CC(C)[C@H](NC(=O)[C@H](CCCN=C(N)N)NC(=O)NC(Cc1ccccc1)C(=O)O)C(=O)NC(C=O)CCCN=C(N)N (stereo partly drawn) ({ξF-CO}-Arg-Val-[ξR]-aldehyde) | – | inconclusive: 39.8 µM [inhibitor, single point]
61 | COc1ccc(OCC2c3cc(OC)c(OC)cc3CCN2C(=O)COc2ccc(Cl)cc2Cl)cc1 (centres undefined) | inactive: -31.8% | –
62 | COc1ccc(CNS(=O)(=O)c2ccc3c(c2)CCN3C(=O)C2CCC2)cc1 | inactive: -9.44% | –
63 | CC(=O)Nc1cccc(NC(=O)CSc2nnnn2-c2ccc3c(c2)OCO3)c1 | inconclusive: -75.3% [inhibitor] | –
64 | CC(=O)c1c(COC(=O)c2cccc(C)c2)nc2ccccc2[n+]1[O-] | – | inconclusive: 35.5 µM [inhibitor, partial curve, poor fit]
65 | COc1ccccc1-n1ccnc1SCC(=O)NCC1CCCO1 (centres undefined) | inactive: 0.101% [at 102 µM] | –
66 | CC(=O)Nc1ccc(NC(=O)C2CC(=O)N(Cc3ccccc3)C2)cc1 (centres undefined) | inactive: 31.3% | –
67 | CCOc1cccc(N2C(=O)CC(N3CCN(c4ccc(S(=O)(=O)CC)cc4)CC3)C2=O)c1 (centres undefined) | – | inconclusive: 17.8 µM [inhibitor, partial curve, poor fit]
68 | O=C(N/N=C/c1cc2c(cc1Br)OCO2)C1COc2ccccc2O1 (centres undefined) | – | inconclusive: 44.7 µM [inhibitor, partial curve]
